Numbering of substitutions follows the chain as printed. Results are given in words; binding and its absence hold for the method and conditions named. Some results given as binding are weak or reduced against the parent protein; the word gives no strength.
How the values were obtained:
Assay in all cases: two-hybrid; Gal4 DNA-binding domain (pGBD) and activation domain (pGAD) fusions in S. cerevisiae pJ69-4a; growth on SD His- and Ade-deficient plates, 30°C, 4-5 days
[1] = target: T1, RecG M80A Gal4 hybrid (E. coli) (UniProt P24230)
T1 sequence: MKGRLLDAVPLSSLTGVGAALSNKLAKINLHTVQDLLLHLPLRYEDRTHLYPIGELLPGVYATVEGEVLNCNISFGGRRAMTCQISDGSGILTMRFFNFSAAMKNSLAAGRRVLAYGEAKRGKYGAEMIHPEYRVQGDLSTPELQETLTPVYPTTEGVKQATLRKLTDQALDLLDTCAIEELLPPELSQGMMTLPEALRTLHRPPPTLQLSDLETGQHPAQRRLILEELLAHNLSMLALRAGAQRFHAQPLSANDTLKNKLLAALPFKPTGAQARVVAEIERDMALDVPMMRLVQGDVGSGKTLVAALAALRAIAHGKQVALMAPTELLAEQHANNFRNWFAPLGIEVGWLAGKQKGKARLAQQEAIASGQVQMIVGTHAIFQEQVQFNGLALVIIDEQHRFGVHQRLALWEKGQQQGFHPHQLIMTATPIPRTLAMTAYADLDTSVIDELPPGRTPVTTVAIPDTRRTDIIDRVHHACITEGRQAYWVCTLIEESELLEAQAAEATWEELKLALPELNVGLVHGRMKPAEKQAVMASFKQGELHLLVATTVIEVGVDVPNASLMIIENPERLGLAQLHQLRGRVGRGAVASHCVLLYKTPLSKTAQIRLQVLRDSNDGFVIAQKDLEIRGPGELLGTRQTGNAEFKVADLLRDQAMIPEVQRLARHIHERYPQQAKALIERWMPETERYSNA

Sequences of proteins named here, by UniProt entry; tags and fusion partners are left off.
UniProt P0AGE0: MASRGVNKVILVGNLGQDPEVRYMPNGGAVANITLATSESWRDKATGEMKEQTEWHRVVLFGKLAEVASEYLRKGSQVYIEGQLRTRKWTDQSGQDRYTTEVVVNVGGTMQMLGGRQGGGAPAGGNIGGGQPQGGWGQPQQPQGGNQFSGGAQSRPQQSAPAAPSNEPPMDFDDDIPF

[2] = target: T2, RecG Gal4 hybrid, wildtype (E. coli) (UniProt P24230)
T2 sequence: T1 sequence with A80M

[3] = target: T3, RecG R474E Gal4 hybrid (E. coli) (UniProt P24230)
T3 sequence: T1 sequence with A80M, R474E

Substance: SSB Gal4 hybrid (from UniProt P0AGE0 1-178)
- binding [1]: binds
- binding [2]: binds
- binding [3]: no binding

From paper PMC10164576, “Interaction with the carboxy-terminal tip of SSB is critical for RecG function in E. coli” (Nucleic Acids Research, 2023)
